Measurements: patent US20260284066A1, “TYK2 INHIBITORS AND COMPOSITIONS AND METHODS THEREOF” (LYNK PHARMACEUTICALS CO. LTD., priority 2023, published 2026)

Tested on: Ba/F3-FL-TYK2-P760L cells
Assay: Anti-proliferative assay in Ba/F3-FL-TYK2-P760L cells (Cell-Titer Glo)
Assay type: cell-based
Conditions: 72 h

## (R*)-6(Cyclopropanecarboxamido)-4((7-methoxy-1-(1,1,1-trifuoropropan-2-yl)-1H-pyrazolo[4,3-c]pyridin-6-yl)amino)-N-(methyl-d3)nicotinamide [Example 3A]
  IC50: 1800 nM
